The chains are these.
B1: CPEB3 Ribozyme (parent)
chain: UAACAGGGGGCCACAGCAGAAGCGUUCACGUCGCAGCCCCUGUCAGAUUCUGGUGAAUCUGCGAAUUCUGCUGUAUAUCUC

Read counts are not given, so values of variants with three or more changes are uncertain.

The variants in the series derive from B1. The series can be described thus: self-cleavage, relative activity (ratio to wild type); higher = more cleavage; in vitro, sequencing. The method in brief: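 Relative activity compares each variant's cleaved/total read fraction with that of the unmutated ribozyme. To get these fractions, barcoded CPEB3 ribozyme libraries from rounds of error-prone PCR were transcribed with T7 RNA polymerase for 5 hours at 37°C and then given 15 min of DNase I treatment before EDTA was added. The RNAs were reverse transcribed with template switching and sequenced on Illumina, and DNA sequencing linked barcodes to variants. A minimum of 5 reads applied, and three batches were averaged.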
In the case of A45U A47G G52A A57U U60C, the self-cleavage was determined as 0.09. In the case of U43A U48C U54C A77G, the self-cleavage turned out to be 0.56. U43A A47G A56U U74C: the self-cleavage was determined as 0.66. For U43A U60C U66C U78G, the self-cleavage turned out to be 0.11.

U43A U66A U69A: the self-cleavage amounted to 0.35.

Regarding U43G A47G U72C, the self-cleavage was found to be 0.07. Then A47G A57G U58A, with 0.25; and G46U A47G U51A U54C G73U, with 0.17. Then U43C U58A U74C, with 0.17; and U43A U51C U54C A56G, with 0.84. The same measure for G46U U66C C79U: 0.1. Turning to U41C U49C A57U U78C, the self-cleavage is 0.52. The same measure for U43G A64G U72C U74C A75G: 0.19; for A47G A57G A65G U67A U69C U78C: 0.17. Then C44U A45U U67G, with 0.1; and U43C G55U U60A, with 0.09. Consider U43A A45G U49A, for which the self-cleavage is 0.21. Take A45C U60G U78C: the self-cleavage was determined as 0.94. The same measure for A47G A65G U78C U80A: 0.42. Then U43C C62U U69A, with 0.13; and C44U U54A A56U U69C U72C U76C, with 0.13; and A45G U58A U69C, with 0.36. Then U41G U43A A65G U69A, with 0.04.

As to G42A C59A C62U, the self-cleavage was 0.23. As to U41G U49C U78C, the self-cleavage was 0.05. The same measure for A45G C59A U72C: 0.26; for A45U G46C A47G C68A U72C: 0.11.

With A45U G61A C71A, the self-cleavage turned out to be 0.12. Then A45U A65G U69C, with 0.15. With U43G A57G U58C A75G, the self-cleavage was 0.11. Take U43C U60A U69C: the self-cleavage is 0.31.

In the case of G46A G55A U80C, the self-cleavage was found to be 0.21. As to U43G A64G U72C U76A, the self-cleavage is 0.15. The same measure for U43A U48C U60A: 0.19; for A47G U48G U60C: 0.17; for A45U A56G C62U U72G C79G: 0.1. As to U43C U51C U67A, the self-cleavage came to 0.16. The same measure for U43C U48C U60C: 0.11. Then A47G A57G U69A U74C, with 0.31; and A45G U74C U78C, with 1.15. Consider U43C U58C A77U, for which the self-cleavage stood at 0.19.

For the variant A45G U51C U60C A65G U67C, the self-cleavage was determined as 0.07. Then U41C U58C U72C, with 1.06; and A47G A57G U72C U78C, with 0.67. Consider U41G A65G U66C, for which the self-cleavage was 0.11.

With U41G U49C G55C U58C A64G, the self-cleavage worked out at 0.3. The same measure for U43C A45G G46C U48A: 0.17; for A45C U48A U67C: 0.1.

For A47G A56U C59U, the self-cleavage was found to be 0.1. Then G46C U54C A77G, with 0.17. A45G U48C U60C: the self-cleavage was 0.57. The same measure for A47G U51A G63U: 1.11; for U43C U54C U69C: 0.21.

For A45G U48C A65G U72C, the self-cleavage is 0.13. For A45G A64U U67C, the self-cleavage was 0.25. On to U43C A45G U72A U74C U80A, for which the self-cleavage was 0.62.

Regarding U43G U60C A75C U76C, the self-cleavage stood at 0.17. Take C44U A45U U51C U60C: the self-cleavage worked out at 0.14.

Regarding U43C A45U U78C C81U, the self-cleavage was found to be 0.2. As to A45G A56G A57G A64G U76A, the self-cleavage was 0.2.

Consider A45G U51A C62U, for which the self-cleavage was 0.61. With U43C A45G U60A, the self-cleavage was determined as 0.52.

In the case of U43C U48C U49C, the self-cleavage stood at 0.04.

For A47G U54G A56U U76C, the self-cleavage turned out to be 0.22. Then A45U A47U U58A C68A, with 0.07; and U43C A65G U72C, with 0.32. In the case of U43C A45G U49A U60A G63A, the self-cleavage turned out to be 0.11.

As for U41G A45U A57G U67C, the self-cleavage amounted to 0.21. Consider U41C U51C U58C A64G U78C, for which the self-cleavage was found to be 0.23.

For U43A A47G U48A A56G U58C U80G, the self-cleavage was determined as 0.72.

For the variant A45C C59U A77G, the self-cleavage stood at 0.08.

As to U43A U54C A75U U76C, the self-cleavage stood at 1.23. Then U43C U60C U72C, with 0.09; and A47G U48C U60G, with 0.14.

Take U43C A45U A57U U58C: the self-cleavage was 0.09.

Turning to A45G A56G G63A U76A, the self-cleavage was 0.56. For U43C U54C U74C, the self-cleavage came to 0.6. Then A45C U51C A56U A64U, with 0.17; and A45U U74A C79U, with 1.19; and A47G U51C U54C U78C, with 0.67. G42A A47G U58C A65G: the self-cleavage is 0.11. In the case of G46A A57G U72A, the self-cleavage was 0.13. Consider G46A U54C U72A A77G, for which the self-cleavage amounted to 0.08. The same measure for A45G U67G U78C: 0.16; for U43C A47G A64G U67A: 0.11. Consider A45G G53A U58A, for which the self-cleavage is 0.41. A47G U49C A57G A64G: the self-cleavage worked out at 0.1. Regarding A47G U49C G55U U74G, the self-cleavage came to 0.41. In the case of U43C A57G U69C, the self-cleavage came to 0.21. Regarding A45U A56G U80C, the self-cleavage turned out to be 0.68. As to A45G G61C A64U U72A, the self-cleavage turned out to be 0.18. In the case of A47G C50A U54C U60C, the self-cleavage turned out to be 0.09.

For the variant U43C U48C A56G U80C, the self-cleavage turned out to be 0.18. Then A47G A64G U66C A77G, with 0.21; and U43C A47G U78C, with 0.33. The same measure for A47G U48C A56G U76A: 0.4; for U41C U49C A65G U72C: 0.19.

Turning to U43A A45G U66A, the self-cleavage came to 0.12. Then C44U G63A A75G, with 0.08; and A45U A56G A75G, with 0.27. With U41C U48G U69A, the self-cleavage amounted to 0.15. The same measure for A45U A56U A57G U69A: 0.07; for A45G U60A C62U: 0.13. Then A47G U48C U58A U72A, with 0.14; and A45C U54C U66A, with 0.24; and A45G U51C U72A, with 0.44. In the case of A45G U58G C62U, the self-cleavage was 0.26.

In the case of U43A A56G A57G A75G, the self-cleavage was 0.35. The same measure for A45G A64U U66A: 0.16; for A47G A56U U66C: 0.09. On to A45U U51C A64G, for which the self-cleavage worked out at 0.25. The same measure for A47G U49C U76C: 0.43. A45C U69G U74A U80A: the self-cleavage amounted to 0.23. For the variant A45C A77G U78C, the self-cleavage was 0.3. For U43C A45U A47G U80A, the self-cleavage turned out to be 0.23. On to G42A C44U A47G, for which the self-cleavage stood at 0.16.

As for U41G U51C C68U U72G U78C, the self-cleavage was 0.14. As to A45U A47U U49C, the self-cleavage is 0.09. On to A47G U48C U69A, for which the self-cleavage turned out to be 0.1. With A45U A64U C68A, the self-cleavage stood at 0.07. Take A47G U58C C62U: the self-cleavage worked out at 0.14. As to A47G U48C G53U, the self-cleavage worked out at 0.26.

For the variant U43A U66A A75G, the self-cleavage came to 0.54.

Take A45G A47G A65G U67C: the self-cleavage amounted to 0.1. The same measure for U43G A56G A57G A64G: 0.27; for G46C U58A U60C U80G: 0.11.

Consider U43C U48C G53A, for which the self-cleavage was found to be 0.33.

In the case of U41C U43C U78C, the self-cleavage is 0.41. With G46U A56G U58C U78C, the self-cleavage amounted to 0.13. Then U41G U43C G52C U54C, with 0.15. For the variant A45U U51C U74C, the self-cleavage came to 0.79. Regarding U41C U51C A64G U80C, the self-cleavage turned out to be 0.4. A45G U58C U69C U80C: the self-cleavage stood at 0.19.

With U43A U58C A64G, the self-cleavage was 0.31. Then U43A U48C A57U, with 1.09; and U43A U48C A64G A65G, with 0.27.

With U41C U60C A75G, the self-cleavage turned out to be 0.39.

In the case of A45U U51A U60C, the self-cleavage was 0.34. In the case of U43A U54A U60C, the self-cleavage stood at 0.7. Then U43A U54C G63A, with 1.07. Take G46A U51C U67C: the self-cleavage came out at 0.12. The same measure for A45U U54C U66C: 0.2. The same measure for U41C U48A U80C: 0.61. Consider C44U U51C U58C U74C, for which the self-cleavage stood at 0.06.

In the case of U43C U49C A57G U72G, the self-cleavage turned out to be 0.11. With G46A U51A A57G, the self-cleavage worked out at 0.48. Consider A45G U67A U72A, for which the self-cleavage was determined as 0.23.

Turning to A45G A47G A56U U74C, the self-cleavage turned out to be 0.12. Then A45G U60A U74A, with 1.22; and U43C U51A G55A, with 0.64; and A47G U54A U58A U60C, with 0.41.

Take U41C U49C U74C: the self-cleavage came out at 0.85. The same measure for U43C A57G A64G: 0.33. With G46A A64G U74A, the self-cleavage stood at 0.15. Then G42A A47G U54A U60C, with 0.09; and U43A U69A U80C, with 0.62.

Regarding A47G U54A U72C, the self-cleavage is 1.17. The same measure for U41C U60G A75U: 0.44; for U41C U49C A64U U66C U67A U74C A75U: 0.13; for G46A A47G U48C U60A U80C: 0.12. Take A45U A56G U78C U80A: the self-cleavage turned out to be 0.29. The same measure for A47G U54C U69A: 0.62; for A45U A64U A75U: 0.24.

In the case of A45G A64G A65G U69G, the self-cleavage was 0.32. Then U41C U51C G53A U78C, with 1.07; and A47G C59U U69A, with 0.21; and G42U U69A U80A, with 0.23.

The values are drawn from the RNAGym collection of RNA variant scans (doi:10.1093/nar/gkz1192).
